Measured values as given in PubChem BioAssay AID1645887 (National Center for Advancing Translational Sciences (NCATS), 2021).
Several values for one entry are separate records, joined by “and”; a condition that tells them apart may be missing. Identical values can stand only once. In all, about 16,000 compounds went through this assay and about 40 (0.2%) were called active. Another 1% or so got no clear call; they are omitted. Calls come from the whole dose curve; as a rule, active = well fitted activation curve with a large enough effect; inconclusive = small, poorly fitted or top-dose-only effect, or another doubt; inactive = no such curve, though single readings can be large or run the other way. Some of the results follow.

Biological target: Rap guanine nucleotide exchange factor 4 (Homo sapiens) (UniProt Q8WZA2)
UniProt Q8WZA2, sequence (Q8WZA2 whole entry, looked up): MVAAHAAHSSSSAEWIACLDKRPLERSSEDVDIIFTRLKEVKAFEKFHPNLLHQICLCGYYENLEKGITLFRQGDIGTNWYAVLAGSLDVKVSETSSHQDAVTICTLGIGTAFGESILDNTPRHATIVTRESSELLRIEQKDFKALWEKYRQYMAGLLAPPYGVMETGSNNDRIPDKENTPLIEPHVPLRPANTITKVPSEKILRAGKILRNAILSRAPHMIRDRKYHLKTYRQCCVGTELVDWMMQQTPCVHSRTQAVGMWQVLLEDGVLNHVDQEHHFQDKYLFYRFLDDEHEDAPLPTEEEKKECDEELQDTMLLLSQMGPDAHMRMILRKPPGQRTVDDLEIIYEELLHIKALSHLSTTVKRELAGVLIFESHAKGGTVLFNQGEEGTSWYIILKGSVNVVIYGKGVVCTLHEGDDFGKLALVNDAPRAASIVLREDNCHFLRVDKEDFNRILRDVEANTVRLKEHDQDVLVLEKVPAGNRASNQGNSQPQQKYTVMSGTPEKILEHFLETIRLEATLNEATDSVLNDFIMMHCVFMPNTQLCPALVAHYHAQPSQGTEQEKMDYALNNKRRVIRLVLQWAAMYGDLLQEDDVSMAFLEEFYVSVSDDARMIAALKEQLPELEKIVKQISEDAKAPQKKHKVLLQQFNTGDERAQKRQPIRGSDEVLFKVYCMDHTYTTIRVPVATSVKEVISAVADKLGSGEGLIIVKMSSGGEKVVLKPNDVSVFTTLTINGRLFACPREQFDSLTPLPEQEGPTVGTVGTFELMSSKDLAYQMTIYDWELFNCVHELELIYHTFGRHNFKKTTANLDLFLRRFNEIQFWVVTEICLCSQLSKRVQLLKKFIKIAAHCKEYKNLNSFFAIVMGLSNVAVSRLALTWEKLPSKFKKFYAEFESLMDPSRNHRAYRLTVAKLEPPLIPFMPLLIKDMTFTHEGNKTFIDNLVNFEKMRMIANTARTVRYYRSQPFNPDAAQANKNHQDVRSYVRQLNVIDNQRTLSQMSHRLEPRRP
Experiment: Validation qHTS for agonist of cAMP-regulated guanine nucleotide exchange factor 4 (EPAC2);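 note: exchange makes BODIPY-GDP fluorescence drop when released from Rap1B; series mostly up to about 150 µM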
Conditions: EPAC2 Rap1B BODIPY-GDP exchange, fluorescence; activation: stronger effect = higher value
Outline: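 Fluorescent exchange assay: 100 nM EPAC2 with 250 nM RAP1B-BODIPY-GDP and 50 uM GDP; compound added, 5 min at room temperature, then read (ex 480/em 540 nm) every 5 min for 30 min. Normalized to 6.5 mM cAMP agonist control.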
% is set by controls: 0 for no effect and ±100 for the full control effect.

activation, inactive:
CN1CCC(=O)N([C@H](COc2ccccc2)Cc2ccccc2)CC1 -12.4%
O=S(O)CO -1.41%
CO[C@H]1C=CO[C@@]2(C)Oc3c(C)c(O)c4c(O)c(c(C=NN5CCN(C)CC5)c(O)c4c3C2=O)NC(=O)C(C)=CC=C[C@H](C)[C@H](O)[C@@H](C)[C@@H](O)[C@@H](C)[C@H](OC(C)=O)[C@H]1C -9.42%
CC(C)C(=O)NCC1CCC2(CCN(Cc3ccc(-c4ccccc4Cl)o3)CC2)O1 (stereo unspecified) 4.03%
COC(=O)CC1C(C)(C)C(=O)C2CC3=C4CC(=O)OC(c5ccoc5)[C@]4(C)CCC3[C@@]1(C)C2=O (stereo partly specified) -11.6%
COc1cc(NS(=O)(=O)c2ccc(N)cc2)ncn1 4.94% and -16.4%
CC(C)=CCc1c2c(c3occ(-c4ccc(O)c(O)c4)c(=O)c3c1O)C=CC(C)(C)O2 -63.6%
O=C(c1cc(C(F)(F)F)cc(C(F)(F)F)c1)N1CCC[C@@]2(CCN(c3ncccn3)C2)C1 -18.4%
COc1ccccc1CCn1c(=O)c(-c2cc(F)cc(F)c2)nc2cncnc21 -11.3%
N#CCCn1c(=O)c(-c2cccs2)nc2cnc(Nc3ccccc3)nc21 -2.03%
Cc1cc(C)nc(NS(=O)(=O)c2ccc(N)cc2)n1 -20% and -4.01%
CC1(C)S[C@@H]2C(C(=O)OCc3ccccc3)NC(=O)N2C1C(=O)OCc1ccccc1 (stereo partly specified) -9.09%
C/C=C(\C)C(=O)OC1[C@@H]2C=C3C4CC(=O)OC(c5ccoc5)[C@]4(C)CCC3[C@@](C)(C2=O)C(C(O)C(=O)OC)C1(C)C (stereo partly specified) -6.19%
O=c1cnc2cncnc2n1Cc1ccc(F)cc1 9.41%
CN(C(=O)CN(CCO)CC(=O)N(C)C(C)(C)Cc1ccccc1)C(C)(C)Cc1ccccc1 -15% and -17.7%
COC(=O)N/N=C/c1c[n+]([O-])c2ccccc2[n+]1[O-] -10.8%
COc1ccc2c(c1)CCc1cnc(-n3ncc(C(=O)NCc4cc(C)no4)c3C3CC3)nc1-2 -6.76%
c1ccc2cc(C3=NCCN3)ncc2c1 1%
COCCn1c(=O)cnc2cnc(N3CCNCC3)nc21 -2.89%
O=C(c1csnn1)N1CCC[C@@]2(CCN(Cc3cc(C(F)(F)F)cc(C(F)(F)F)c3)C2)C1 -27.9%
O=C(O)C1=CC(=C(c2ccc(O)c(C(=O)O)c2)c2ccc(O)c(C(=O)O)c2)C=CC1=O -31.3% and -33.8%
CCCCCCCCN1[C@@H](CC(=O)OC)c2cc(F)ccc2S1(=O)=O -13.8%
O=c1cc(-c2ccccc2)oc2ccccc12 13.2%
COCc1c(C(=O)N2CCCCC2c2cccnc2)cnn1-c1ncc2c(n1)-c1ccccc1CCC2 (stereo unspecified) -15.6%
Cc1ccc(OCC(O)C(C)NC(C)C)c2c1CCC2 (stereo unspecified) 7.97%
CN(C)c1ncc2nc(-c3cccc(C#N)c3)c(=O)n(C)c2n1 -31.5%
CCCn1c(=O)c(C)cn2nc(N)nc12 0.784% and -37.7%
CC(C(O)c1ccc(O)cc1)N1CCC(Cc2ccccc2)CC1 (stereo unspecified) 24.4% and -16.1%
CN1CCN(c2ncc3nc(-c4ccccc4)c(=O)n(CCC#N)c3n2)CC1 -25.8%
CN(Cc1ccccc1)Cc1ccccc1 -8.8%
CCCCCCCCCCCCCCCC(=O)N[C@@H](COP(=O)(O)O)C(=O)O -9.78%
O=c1ccn([C@@H]2O[C@H](COP(=O)(O)OP(=O)(O)O)[C@@H](O)[C@H]2O)c(=O)[nH]1 4.39% and -4.82%
C[C@@H]1C/C=C/C=C/C=C/C=C/[C@H](O[C@@H]2O[C@H](C)[C@@H](O)[C@H](N)[C@@H]2O)C[C@@H]2O[C@](O)(C[C@@H](O)C[C@H]3O[C@@H]3/C=C/C(=O)O1)C[C@H](O)[C@H]2C(=O)O -5.35%
COc1ccc(SC[C@H](C)CN2CC[C@H](NC(=O)OCc3ccccc3)CCC2=O)cc1 -12%
CN1CCN(c2nc(-c3ccc4c(c3)OCO4)nc3ccccc23)CC1 -6.12%
CN(C)c1ncc2nc(CCc3ccccc3)c(=O)n(-c3ccccc3)c2n1 21.3%
Cc1c(N)c(=O)n(-c2ccccc2)n1C 12.9% and 17.1%
C(=C\c1ccnc2ccccc12)/c1ccnc2ccccc12 -22.2%
COc1cccc(CNC(=O)c2c(OC)cc(=O)n3c2CCN(C(=O)c2csc(C)n2)CC3)c1 1.41%
COc1ccc2c3c1O[C@H]1C[C@H](O)C=C[C@@]31CCN(C)C2 -37.9%
O=C(O)c1ccc[n+]([O-])c1 -9.28%
COC(=O)N1CCC[C@@]2(CCN(c3ccccn3)C2)C1 -4.74%
COc1cc(-c2cc(=O)c3ccccc3o2)ccc1O -29.5%
NC[C@H]1O[C@H](O[C@H]2[C@H](O)[C@@H](O[C@H]3O[C@H](CO)[C@@H](O)[C@H](N)[C@H]3O)[C@H](N)C[C@@H]2N)[C@H](N)C[C@@H]1O -34.4%
C=CCOc1ccccc1OCC(O)CNC(C)C (stereo unspecified) -9.66%
CC(=O)N1CCC2(CCCN(c3ncccn3)C2)CC1 -3.78%
O=C(O)C1(O)C[C@H](O)C(O)[C@@H](O)C1 (stereo partly specified) -12.3%
COc1ccc2c(c1)c(CC(=O)O)c(C)n2C(=O)c1ccccc1 -19.7%
CC(NC(=O)c1cccnc1)c1nnc2n1CCN(Cc1ccc(-c3ccccc3)cc1)CC2 (stereo unspecified) -8.1%
COc1ccc(-n2c(=O)c(C)nc3cnc(N4CCNCC4)nc32)cc1 -13.5%
Nc1nc2c(cnn2CCc2ccccc2)c2nc(-c3ccco3)nn12 -40.3%
